In PMC5325423:
No constants are given. Whether binding was seen depends on the method and setting. Binding seen in cells or lysates may run through a third protein. Some entries that bind do so weakly or less than the wild type.

The chains behind the UniProt entries cited, without tags or fusion partners. Where a name states a change or a piece, a line headed by the entry shows the natural chain unless it says otherwise. A line that says so, or that is headed by a name, gives the form on record, which may keep a tag or linker.
UniProt Q02248: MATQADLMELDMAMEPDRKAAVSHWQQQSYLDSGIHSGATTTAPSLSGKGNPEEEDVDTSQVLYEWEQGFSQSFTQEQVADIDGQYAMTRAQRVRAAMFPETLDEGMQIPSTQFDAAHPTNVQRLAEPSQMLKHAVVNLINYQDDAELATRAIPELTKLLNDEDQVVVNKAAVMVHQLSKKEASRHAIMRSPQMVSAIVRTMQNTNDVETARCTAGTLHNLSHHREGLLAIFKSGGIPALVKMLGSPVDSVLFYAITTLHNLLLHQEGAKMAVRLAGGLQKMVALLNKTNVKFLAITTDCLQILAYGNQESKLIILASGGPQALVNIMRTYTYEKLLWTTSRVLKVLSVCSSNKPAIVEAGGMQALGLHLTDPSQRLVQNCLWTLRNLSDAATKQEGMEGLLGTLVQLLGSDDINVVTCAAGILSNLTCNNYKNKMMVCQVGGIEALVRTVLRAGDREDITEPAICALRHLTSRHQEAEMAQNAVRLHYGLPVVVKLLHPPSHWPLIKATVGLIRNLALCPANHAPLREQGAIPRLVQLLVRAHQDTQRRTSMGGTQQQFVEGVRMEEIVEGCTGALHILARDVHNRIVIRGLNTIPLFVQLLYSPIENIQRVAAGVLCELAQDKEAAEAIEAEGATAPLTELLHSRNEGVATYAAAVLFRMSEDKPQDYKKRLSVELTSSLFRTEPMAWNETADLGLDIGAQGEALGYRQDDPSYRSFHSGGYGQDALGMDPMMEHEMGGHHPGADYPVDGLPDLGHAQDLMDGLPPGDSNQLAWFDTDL
UniProt P13569: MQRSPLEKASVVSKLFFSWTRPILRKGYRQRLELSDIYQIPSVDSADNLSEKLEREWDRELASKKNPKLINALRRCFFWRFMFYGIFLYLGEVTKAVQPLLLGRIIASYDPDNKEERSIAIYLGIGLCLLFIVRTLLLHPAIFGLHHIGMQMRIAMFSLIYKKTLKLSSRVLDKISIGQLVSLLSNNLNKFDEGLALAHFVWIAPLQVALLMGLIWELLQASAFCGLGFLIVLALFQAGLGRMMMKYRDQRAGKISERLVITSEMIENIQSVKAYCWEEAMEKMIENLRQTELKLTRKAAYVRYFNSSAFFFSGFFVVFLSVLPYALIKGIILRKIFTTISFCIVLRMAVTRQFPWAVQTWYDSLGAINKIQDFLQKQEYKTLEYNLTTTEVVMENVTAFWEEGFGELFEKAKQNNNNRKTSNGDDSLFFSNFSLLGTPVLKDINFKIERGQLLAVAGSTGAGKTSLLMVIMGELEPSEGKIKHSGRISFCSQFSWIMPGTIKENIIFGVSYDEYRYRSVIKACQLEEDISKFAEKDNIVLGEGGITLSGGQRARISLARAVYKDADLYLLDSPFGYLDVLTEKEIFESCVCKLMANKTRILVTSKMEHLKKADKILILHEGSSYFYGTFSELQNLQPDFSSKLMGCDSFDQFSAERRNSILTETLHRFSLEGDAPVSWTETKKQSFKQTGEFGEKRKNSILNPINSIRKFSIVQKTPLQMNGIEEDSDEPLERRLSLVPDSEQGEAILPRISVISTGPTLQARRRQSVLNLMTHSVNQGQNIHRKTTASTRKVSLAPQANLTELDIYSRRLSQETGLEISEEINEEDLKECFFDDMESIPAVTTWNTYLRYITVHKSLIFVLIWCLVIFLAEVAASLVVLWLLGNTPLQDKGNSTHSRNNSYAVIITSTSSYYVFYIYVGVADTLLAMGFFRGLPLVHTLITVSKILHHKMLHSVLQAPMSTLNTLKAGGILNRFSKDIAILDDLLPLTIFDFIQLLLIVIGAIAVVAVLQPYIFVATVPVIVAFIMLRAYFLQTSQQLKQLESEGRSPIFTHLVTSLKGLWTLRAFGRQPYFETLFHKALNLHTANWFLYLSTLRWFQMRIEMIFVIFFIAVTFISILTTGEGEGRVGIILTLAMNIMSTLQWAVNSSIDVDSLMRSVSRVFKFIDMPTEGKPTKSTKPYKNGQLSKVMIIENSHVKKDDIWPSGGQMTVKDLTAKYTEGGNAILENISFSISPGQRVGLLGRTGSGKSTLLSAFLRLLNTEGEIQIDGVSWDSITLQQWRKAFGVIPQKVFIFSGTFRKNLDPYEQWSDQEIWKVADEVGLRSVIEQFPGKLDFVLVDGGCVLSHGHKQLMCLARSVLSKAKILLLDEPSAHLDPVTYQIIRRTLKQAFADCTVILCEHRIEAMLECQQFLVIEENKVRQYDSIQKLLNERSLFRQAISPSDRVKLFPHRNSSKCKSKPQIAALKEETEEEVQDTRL
UniProt P35222: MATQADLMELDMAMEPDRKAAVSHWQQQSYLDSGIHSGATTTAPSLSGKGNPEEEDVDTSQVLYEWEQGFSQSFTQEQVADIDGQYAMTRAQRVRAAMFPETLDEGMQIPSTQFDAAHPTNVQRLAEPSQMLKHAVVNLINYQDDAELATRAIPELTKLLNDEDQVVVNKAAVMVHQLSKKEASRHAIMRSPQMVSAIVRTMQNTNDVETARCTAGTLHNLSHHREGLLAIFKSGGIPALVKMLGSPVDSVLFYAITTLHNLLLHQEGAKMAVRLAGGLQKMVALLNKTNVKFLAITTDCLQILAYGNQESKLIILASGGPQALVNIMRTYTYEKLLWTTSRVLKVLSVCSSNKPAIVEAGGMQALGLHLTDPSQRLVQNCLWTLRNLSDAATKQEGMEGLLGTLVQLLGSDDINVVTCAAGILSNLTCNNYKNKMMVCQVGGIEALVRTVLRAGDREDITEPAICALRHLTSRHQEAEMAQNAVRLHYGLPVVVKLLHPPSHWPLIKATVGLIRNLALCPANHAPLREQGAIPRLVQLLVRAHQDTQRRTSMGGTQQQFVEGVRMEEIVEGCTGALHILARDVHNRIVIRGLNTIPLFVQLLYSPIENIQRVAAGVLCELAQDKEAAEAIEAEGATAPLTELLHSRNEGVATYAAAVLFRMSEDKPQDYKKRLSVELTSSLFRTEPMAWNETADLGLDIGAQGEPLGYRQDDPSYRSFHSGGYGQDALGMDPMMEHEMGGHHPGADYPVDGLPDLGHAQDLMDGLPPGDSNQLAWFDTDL
UniProt Q04207: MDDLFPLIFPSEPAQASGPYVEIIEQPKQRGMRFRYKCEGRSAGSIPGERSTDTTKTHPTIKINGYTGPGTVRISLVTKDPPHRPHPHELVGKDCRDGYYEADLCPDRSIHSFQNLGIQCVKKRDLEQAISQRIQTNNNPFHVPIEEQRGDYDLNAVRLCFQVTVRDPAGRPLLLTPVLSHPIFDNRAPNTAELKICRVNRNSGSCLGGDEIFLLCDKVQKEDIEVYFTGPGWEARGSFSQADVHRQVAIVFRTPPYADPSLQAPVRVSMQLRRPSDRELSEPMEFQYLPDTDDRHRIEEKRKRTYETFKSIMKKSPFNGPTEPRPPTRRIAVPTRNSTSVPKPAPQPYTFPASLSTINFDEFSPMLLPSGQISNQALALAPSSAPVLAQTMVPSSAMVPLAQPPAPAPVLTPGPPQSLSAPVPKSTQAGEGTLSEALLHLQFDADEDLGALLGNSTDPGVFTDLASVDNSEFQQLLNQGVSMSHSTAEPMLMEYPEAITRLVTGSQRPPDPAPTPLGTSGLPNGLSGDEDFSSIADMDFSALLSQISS
UniProt P26361: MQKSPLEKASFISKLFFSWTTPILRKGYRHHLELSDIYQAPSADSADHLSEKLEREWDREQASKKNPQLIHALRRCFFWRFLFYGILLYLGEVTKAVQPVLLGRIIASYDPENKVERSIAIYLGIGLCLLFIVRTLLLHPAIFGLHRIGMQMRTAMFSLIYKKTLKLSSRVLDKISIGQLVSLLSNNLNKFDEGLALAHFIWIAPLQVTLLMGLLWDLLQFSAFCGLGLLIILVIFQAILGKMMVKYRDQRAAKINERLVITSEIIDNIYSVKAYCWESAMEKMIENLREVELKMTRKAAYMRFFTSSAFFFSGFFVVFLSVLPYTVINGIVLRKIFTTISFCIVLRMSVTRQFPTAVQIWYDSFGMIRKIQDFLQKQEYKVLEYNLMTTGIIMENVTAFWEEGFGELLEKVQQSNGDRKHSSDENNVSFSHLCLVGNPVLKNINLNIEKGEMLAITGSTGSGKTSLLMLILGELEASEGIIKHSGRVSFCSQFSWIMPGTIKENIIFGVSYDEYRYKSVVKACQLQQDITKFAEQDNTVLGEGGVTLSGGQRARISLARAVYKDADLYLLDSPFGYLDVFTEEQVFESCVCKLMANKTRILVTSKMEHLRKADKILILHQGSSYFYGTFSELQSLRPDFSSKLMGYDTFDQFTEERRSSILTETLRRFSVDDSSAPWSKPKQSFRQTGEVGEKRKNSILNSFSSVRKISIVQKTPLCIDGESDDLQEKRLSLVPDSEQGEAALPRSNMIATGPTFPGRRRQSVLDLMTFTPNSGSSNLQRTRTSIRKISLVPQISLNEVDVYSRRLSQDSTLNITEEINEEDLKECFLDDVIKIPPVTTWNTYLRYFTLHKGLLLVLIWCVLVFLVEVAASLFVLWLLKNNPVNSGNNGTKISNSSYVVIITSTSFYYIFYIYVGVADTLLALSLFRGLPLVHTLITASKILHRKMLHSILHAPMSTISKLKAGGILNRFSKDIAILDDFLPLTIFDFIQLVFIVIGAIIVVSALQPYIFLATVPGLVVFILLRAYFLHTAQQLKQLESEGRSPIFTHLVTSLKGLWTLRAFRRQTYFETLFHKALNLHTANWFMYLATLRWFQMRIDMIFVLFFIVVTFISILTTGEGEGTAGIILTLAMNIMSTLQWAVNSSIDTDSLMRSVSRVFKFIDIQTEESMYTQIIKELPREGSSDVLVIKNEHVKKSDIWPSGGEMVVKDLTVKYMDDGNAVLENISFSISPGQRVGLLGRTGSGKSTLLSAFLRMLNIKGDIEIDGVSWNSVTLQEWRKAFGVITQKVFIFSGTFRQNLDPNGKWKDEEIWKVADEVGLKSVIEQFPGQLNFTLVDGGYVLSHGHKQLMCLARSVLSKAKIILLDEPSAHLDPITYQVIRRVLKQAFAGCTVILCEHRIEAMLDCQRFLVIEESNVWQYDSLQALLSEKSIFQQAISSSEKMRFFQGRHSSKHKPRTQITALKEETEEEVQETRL
ΔF508 CFTR protein, mouse (P26361, form named): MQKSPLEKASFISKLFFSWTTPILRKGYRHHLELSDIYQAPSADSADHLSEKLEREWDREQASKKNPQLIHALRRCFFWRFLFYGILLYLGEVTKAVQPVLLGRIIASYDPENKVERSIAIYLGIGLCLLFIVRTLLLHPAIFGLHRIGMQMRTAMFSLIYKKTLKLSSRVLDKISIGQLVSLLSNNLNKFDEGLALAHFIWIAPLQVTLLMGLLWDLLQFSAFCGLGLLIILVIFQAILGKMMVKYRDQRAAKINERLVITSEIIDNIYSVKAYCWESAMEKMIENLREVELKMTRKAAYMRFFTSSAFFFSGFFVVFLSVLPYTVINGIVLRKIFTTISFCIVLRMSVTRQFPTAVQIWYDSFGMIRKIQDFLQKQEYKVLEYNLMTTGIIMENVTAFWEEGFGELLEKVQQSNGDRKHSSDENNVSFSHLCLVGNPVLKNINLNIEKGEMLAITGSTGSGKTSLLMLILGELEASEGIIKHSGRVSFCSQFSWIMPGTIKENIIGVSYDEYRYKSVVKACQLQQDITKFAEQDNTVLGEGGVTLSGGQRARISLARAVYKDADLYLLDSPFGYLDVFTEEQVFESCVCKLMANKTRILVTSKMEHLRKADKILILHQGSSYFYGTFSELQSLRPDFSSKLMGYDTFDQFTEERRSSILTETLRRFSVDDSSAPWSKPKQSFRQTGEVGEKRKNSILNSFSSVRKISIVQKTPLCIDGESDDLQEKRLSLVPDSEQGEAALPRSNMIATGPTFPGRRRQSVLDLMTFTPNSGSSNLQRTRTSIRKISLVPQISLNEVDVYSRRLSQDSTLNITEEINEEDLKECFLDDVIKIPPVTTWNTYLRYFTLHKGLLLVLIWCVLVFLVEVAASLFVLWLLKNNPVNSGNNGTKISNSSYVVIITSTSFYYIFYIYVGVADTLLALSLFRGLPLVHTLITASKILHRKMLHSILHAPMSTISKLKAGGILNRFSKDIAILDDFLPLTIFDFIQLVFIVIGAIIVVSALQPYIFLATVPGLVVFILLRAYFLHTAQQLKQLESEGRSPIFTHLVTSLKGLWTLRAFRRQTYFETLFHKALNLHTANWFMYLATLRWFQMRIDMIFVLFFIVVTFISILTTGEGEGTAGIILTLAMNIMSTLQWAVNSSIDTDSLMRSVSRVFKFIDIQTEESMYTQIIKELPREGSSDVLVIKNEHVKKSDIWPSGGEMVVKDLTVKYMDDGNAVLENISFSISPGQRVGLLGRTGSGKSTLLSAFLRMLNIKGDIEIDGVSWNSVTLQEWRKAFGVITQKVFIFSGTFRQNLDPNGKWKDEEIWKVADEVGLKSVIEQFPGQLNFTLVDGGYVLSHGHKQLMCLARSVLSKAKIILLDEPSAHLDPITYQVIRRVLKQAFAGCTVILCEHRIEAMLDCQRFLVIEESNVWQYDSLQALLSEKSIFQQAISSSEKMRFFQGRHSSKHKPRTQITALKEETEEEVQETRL

Tests used:
[1] = target: β-catenin, mouse (mouse (endogenous in intestine)) (UniProt Q02248); experiment: co-IP; WT and ΔF508 mouse intestine immunoprecipitated with anti-β-catenin antibody; Western blot for CFTR and p65
[2] = target: cystic fibrosis transmembrane conductance regulator (CFTR), human (human (endogenous in Caco-2)) (UniProt P13569); experiment: co-IP; Caco-2 cell lysates (50 mM HEPES pH 8.3, 420 mM KCl, 0.1% NP-40, 1 mM EDTA) immunoprecipitated with anti-CFTR, anti-β-catenin or anti-NF-κB p65 antibody and protein A/G beads, 4°C overnight; Western blot; IgG control
[3] = target: NF-κB p65, human (human (endogenous in Caco-2)) (UniProt Q04206); experiment: as above
[4] = target: β-catenin, human (human (endogenous in Caco-2)) (UniProt P35222); experiment: as above

Substance | binding [1] | binding [2] | other results
NF-κB p65, human (from UniProt Q04206 1-551) | – | binds | –
NF-κB p65, mouse (from UniProt Q04207 1-549) | binds | – | –
cystic fibrosis transmembrane conductance regulator (CFTR), human (from UniProt P13569 1-1480) | – | – | binding [3]: binds; binding [4]: binds
β-catenin, human (from UniProt P35222 1-781) | – | binds | –

Second part, led by results:

binding [1] | binding [2] | Substance | other results
binds | – | CFTR, mouse, wild type (from UniProt P26361 1-1476) | –
no binding | – | ΔF508 CFTR protein, mouse (from UniProt P26361 1-1476) | –
